Drawing on PubChem BioAssay AID360 (National Center for Advancing Translational Sciences (NCATS), 2006), this text covers Potency for 25 molecules.

The campaign covered roughly 48,000 compounds. About 550 (1.1%) were called active. About 4% were inconclusive and are not listed. Rule as the data show it: active = potency below about 15 µM; inconclusive = mostly about 16 µM to 33 µM; inactive = weaker than that. This is one part of the list.
Potency is read from the fitted curve at half-maximal effect.

Chain of UniProt P04062 (P04062 whole entry, looked up): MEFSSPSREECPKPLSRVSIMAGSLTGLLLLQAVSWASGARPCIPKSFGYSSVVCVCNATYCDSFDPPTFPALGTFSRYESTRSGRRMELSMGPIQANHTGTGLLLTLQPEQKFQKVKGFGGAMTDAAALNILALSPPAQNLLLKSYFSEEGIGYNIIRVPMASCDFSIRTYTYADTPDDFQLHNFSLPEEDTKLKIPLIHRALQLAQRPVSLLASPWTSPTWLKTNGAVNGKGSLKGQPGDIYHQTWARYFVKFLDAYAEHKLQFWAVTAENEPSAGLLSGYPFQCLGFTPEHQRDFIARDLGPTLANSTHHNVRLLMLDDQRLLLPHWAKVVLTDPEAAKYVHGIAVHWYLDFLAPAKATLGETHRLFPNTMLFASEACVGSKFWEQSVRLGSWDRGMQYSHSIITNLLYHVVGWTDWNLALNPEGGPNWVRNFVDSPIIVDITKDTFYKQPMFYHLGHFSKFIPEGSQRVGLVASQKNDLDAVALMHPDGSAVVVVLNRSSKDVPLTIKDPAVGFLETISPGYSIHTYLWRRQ

In this test the target is Lysosomal acid glucosylceramidase (Homo sapiens) (UniProt P04062). The experiment in a line: Glucocerebrosidase.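 Also: the screen sought inhibitors.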 The note with it: purified enzyme, resorufin glucoside fluorescence (screen aimed at inhibitors), 20 min. The essentials:
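Wild-type enzyme at 0.2 nM final in 50mM citric acid/KH2PO4, 10mM sodium taurocholate, 0.01% tween-20, pH 5.9, with resorufin beta-D-glucopyranoside at 30 uM final. Compounds titrated, 20 min at RT, red fluorescence read; AC50 from titration.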
For `CCN(CC)S(=O)(=O)c1ccc(NC(=O)C2COc3ccccc3O2)cc1` (stereo not given), the Potency result was “inactive”. The same measure for `O=C(NCCc1ccc(Cl)cc1)C1CCN(S(=O)(=O)N2CCC3(CC2)OCCO3)CC1`: inactive: > 76.9 µM; for `O=C(CSc1nnc(-c2ccccn2)n1Cc1ccccc1)N1CCCC1`: inactive: > 76.9 µM; for `Cc1ccccc1S(=O)(=O)Nc1nc2ccccc2nc1N1CCOCC1`: inactive: > 76.9 µM.

`O=C(Nc1ccc2c(c1)OCCO2)C1CCCN(S(=O)(=O)c2cccs2)C1` (stereo not given): the Potency was inactive: > 76.9 µM. Turning to `O=C(CSc1nnc(-c2ccccc2)n1Cc1ccccc1)N1CCCC1`, the Potency was inactive: > 76.9 µM. To `COc1nc(-c2ccccc2)ccc1-c1noc(-c2cccs2)n1` belongs “inactive”; to `COc1cccc(-n2cc3c(c2-c2ccccc2)c(=O)n(C)c(=O)n3C)c1`, inactive: > 76.9 µM; to `COC(=O)c1cc(=O)n(C2CC2)c(=NC2CC2)s1`, inactive: > 76.9 µM. Consider `CN(CC(=O)O)S(=O)(=O)c1cccs1`, for which the Potency is inactive: > 76.9 µM. To `CCOC(=O)CN1C(=O)C(C)(C)Oc2ccc(C(=O)NC(C)(C)CC)cc21` belongs inactive: > 76.9 µM; to `O=C(Cn1cnc2c(nnn2Cc2ccc(Cl)cc2)c1=O)NC1CCCC1`, inactive: > 76.9 µM; to `O=C(NCc1ccccc1)C1CC2CCCC(C1)C2=O` (stereo not given), inactive: > 76.9 µM. The same measure for `Cc1ccc(-c2nc3nc4ccccc4nc3n2Cc2ccco2)cc1`: inactive: > 76.9 µM; for `Cn1ccnc1C(=O)c1cc(=O)c2ccccc2o1`: inactive: > 76.9 µM; for `CCN(CC)CCCNC(=O)c1cc(-c2ccc(Cl)cc2)on1`: inactive: > 76.9 µM.

Consider `Cn1c(=O)[nH]c(=O)c2c1nc(N1CCCCC1)n2CCCSc1nc2ccccc2s1`, for which the Potency result is “inactive”. Turning to `CCCn1cnc2c(c1=O)c1nc3ccccc3nc1n2CCc1ccccc1`, the Potency was active: 7.01 µM. The same measure for `Cc1cc(NC(=O)C23CCC(C)(c4nc5cc(Cl)c(Cl)cc5nc42)C3(C)C)no1` (stereo not given): inactive: > 76.9 µM; for `Cc1ccc(-n2ncc3c(=O)n(CC(=O)NCc4ccco4)cnc32)cc1`: inactive: > 76.9 µM; for `CCOC(=O)C1=C(C)NC(C)=C(C(=O)OCC)C1c1cc2ccc(C)cc2[nH]c1=O`: inactive: > 76.9 µM.

Consider `CCCC(=O)Nc1cc(C)c(NC(=O)c2ccccn2)cn1`, for which the Potency was inactive: > 76.9 µM.

`CCc1c(C)[nH]c2ccccc2c1=O`: the Potency was inactive: > 76.9 µM. For the molecule `Cc1ccc(Cn2ccc(NC(=O)c3cc(-c4cccc(Cl)c4)on3)n2)cc1`, the Potency is inactive: > 76.9 µM. The same measure for `COC(=O)c1ccccc1CCC(C)=O`: inactive: > 76.9 µM.
